Measurements from PubChem BioAssay AID485313 (National Center for Advancing Translational Sciences (NCATS), 2010).
Among all 320,000 compounds or so, about 7,600 (2.4%) were called active. The inconclusive results got no clear call from the source; some entries with a clear call stand among them for comparison. Calls come from the whole dose curve; as a rule, active = well fitted activation curve with a large enough effect; inconclusive = small, poorly fitted or top-dose-only effect; inactive = no such curve, though single readings can be large or run the other way. Potencies of inconclusive entries are left out as doubtful fits.

Experiment: qHTS Assay for NPC1 Promoter Activators; note: nearly all actives have a fitted effect of over 60% in size;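 for activation: reporter is driven by a mutant NPC1 promoter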
Conditions: Huh7 NPC1 promoter luciferase reporter, 24 h; series mostly up to 9.22 µM
Summary of the method: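 Stably transfected Huh7 (NPC1 promoter→luciferase), 1500 cells/well in Opti-MEM + 10% FBS, 2 h settle, then compound 24 h at 37 °C. Luminescence after 10 min with Amplite reagent.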
Potency is the fitted concentration of half-maximal effect; tags give direction and shape of the fitted curve.

Compound	Potency
Nc1ccc2c(c1)nnn2-c1ccccc1	inconclusive [activator, partial curve]
CCOc1c(OC(C)=O)ccc(/C=C/c2ccc3cccc(OC(C)=O)c3n2)c1[N+](=O)[O-]	inconclusive [activator, single point]
O=C(CSc1ccccc1)NCCCc1ccccc1	inactive
Cc1cccc(-n2ncc3c(NNC(=O)c4ccco4)ncnc32)c1	inactive
Cc1[nH]n(-c2ccccc2)c(=O)c1N=Nc1ccc2c(c1)OCO2	inconclusive [activator, single point]
Cc1ccsc1C(=O)NCCc1nnc2ccccn12	inconclusive [activator, single point]
COc1cc(Cl)c(CN2CCCC(CO)(Cc3ccccc3)C2)cc1OC (stereo not given)	inactive
COc1ccc(-c2csc(N3CCOCC3)n2)cc1OC	inconclusive [activator, single point]
CN(C(=O)COC(=O)/C=C/c1cccs1)c1c(N)n(Cc2ccccc2)c(=O)[nH]c1=O	inactive
Cc1cc(NC(=O)c2cc(C(C)C)on2)no1	inconclusive [activator, partial curve]
O=C(Nc1ccc(F)cc1)N1CCc2ccccc2C1	active: 3.98 µM
N/C(=N/OC(=O)c1ccccc1Cl)c1ncc([N+](=O)[O-])s1	inconclusive [activator, single point]
CC(/C=N/NC(=O)c1cnccn1)=C\c1ccco1	inconclusive [activator, single point]
O=C(O)c1ccc(N/N=C/c2ccc(-c3ccc(Cl)cc3Cl)o2)cc1	inconclusive [activator, single point]
CCC(=O)Nc1nc(C)c(-c2csc(Nc3ccccn3)n2)s1	inconclusive [activator, partial curve]
CCCCN(C)C(=O)c1nc2ccccn2c1CN1CCC[C@H]1CO	inactive
COc1ccc2c(c1)S/C(=C\C(=O)c1ccncc1)N2C	inconclusive [activator, partial curve]
O=C(CSc1nnc(-c2ccccc2)o1)N1CCCCC1	active: 2.82 µM
Cn1c(=O)c(C(=O)COc2ccc(F)cc2Cl)c(N)n(Cc2ccccc2)c1=O	inactive
CCOc1ccccc1N=Cc1c(O)c2ccccc2oc1=O	inactive
Cc1ccc(NC(=O)c2ccccc2OCC(=O)Nc2ccccc2F)cc1S(=O)(=O)N(C)C	inactive
COc1ccc(NC(=O)c2oc3ccccc3c2C)cn1	inactive
Cc1csc(NC(=O)c2ccc(S(C)(=O)=O)cc2)n1	inconclusive [activator, single point]
Cc1cccc2sc(N(CCCN(C)C)C(=O)c3ccc4ncsc4c3)nc12	inconclusive [activator, single point]
COc1ccc(NC(=O)CSc2nc(SC)ns2)cc1	inconclusive [activator, partial curve]
Cc1ccc(NC(=O)O/N=C/c2ccc(N(C)C)cc2)cc1	inconclusive [activator, single point]
CC(OC(=O)CN1C(=O)NC(C)(C)C1=O)C(=O)c1ccccc1 (stereo not given)	inactive

Compound	Potency
COc1cccc(-c2nnc(NC(=O)c3cccs3)s2)c1	inconclusive [activator, partial curve]
CC(C)(O)[C@H]1Cc2cc3ccc(=O)oc3cc2O1	inconclusive [activator, partial curve]
Cc1cc(OCC(=O)N2CCCCCC2)ccc1[N+](=O)[O-]	inconclusive [activator, partial curve]
COc1ccc(-c2nc(CS(=O)CC(=O)NCc3ccc(F)cc3)c(C)o2)cc1 (stereo not given)	inactive
O=c1[nH]c2ccccc2nc1-c1cccs1	inconclusive [activator, single point]
COC(=O)c1c(-c2ccccc2)csc1N1C(=O)Nc2ccccc2N1O	inconclusive [activator, single point]
CCCCOc1ccc(N=Nc2ccc(N)nc2N)cn1	active: 3.16 µM
Cc1ccc(Cc2cnc(NC(=O)c3cccs3)s2)cc1	active: 2.82 µM
c1ccc(Nc2nc3ccccc3o2)cc1	active: 2 µM
Cc1sc(NC(=O)/C=C/c2ccco2)c(C(=O)O)c1C	inconclusive [activator, partial curve]
c1ccc(-c2nnc(NC3=NCCC3)o2)cc1	inconclusive [activator, full curve]
CN(Cc1cn(Cc2ccccc2)nc1-c1ccc2c(c1)OCO2)Cc1nccn1C	inactive
O=C(O)c1cccc(N/N=C/c2ccc(F)c(F)c2)c1	active: 0.282 µM
c1ccc2cc(CSCc3nc4ccccc4[nH]3)ccc2c1	inactive
C=CCn1c(NCc2ccc(OC)cc2O)nc2ccccc21	inconclusive [activator, partial curve]
Cc1ccc(/C=C/C(=O)OC(C)C(=O)NC2CCCCC2C)o1 (stereo not given)	inactive
Cc1cccc(C(=O)O/N=C(\N)c2ccc(Cl)cc2)c1	active: 0.398 µM
O=C(Nc1nc(=O)c2ccccc2s1)c1ccc(F)cc1	inconclusive [activator, single point]
O=C(Nc1nc(-c2cccnc2)cs1)c1ccccc1F	inconclusive [activator, single point]
COc1cc(NC(=O)c2ccc(-c3csc(C)n3)cc2)c(OC)cc1Cl	inconclusive [activator, partial curve]
NC(=O)c1ccc(NC(=O)c2ccc3c(c2)OCO3)cc1	active: 1.26 µM
CCC(=O)Nc1cccc(-c2cn3cccc(C)c3n2)c1	inconclusive [activator, single point]
Cc1nn(-c2ccccc2)c(C)c1/C=C/C(=O)OCC(=O)NC1CCS(=O)(=O)C1 (stereo not given)	inactive
O=C(CCNS(=O)(=O)c1ccc2[nH]c(=O)oc2c1)Nc1cccc(Br)c1	inactive
O=C(Nc1nnc(C(F)(F)F)s1)c1ccc(Br)s1	inconclusive [activator, full curve]
C=CCc1cccc(C=Nc2cccn3cc(-c4ccccc4)nc23)c1O	inconclusive [activator, partial curve]
S=C(NCCN1CCOCC1)Nc1ccc(-c2nc3ccccc3[nH]2)cc1	inactive

Compound	Potency
O=C(O)c1ccc(NC(=S)NC(=O)c2ccc3ccccc3c2)cc1	inconclusive [activator, partial curve]
O=C(CCc1nnc(CCCc2ccccc2)o1)N1CCCCCC1	inconclusive [activator, single point]
O=C(NCCc1ccccc1)c1cnc2sccn2c1=O	inconclusive [activator, partial curve]
COc1ccc(CNC(=S)NC2CCCCC2)cc1	inactive
CCOC(=O)c1cnc2cc(-c3ccc(C(C)(C)C)cc3)nn2c1N	inconclusive [activator, partial curve]
Cc1ccccc1C(=O)NC(CC(C)C)C(=O)OCc1cc(=O)n2cc(Br)ccc2n1 (stereo not given)	active: 3.98 µM
CC(=O)Nc1cc(C(=O)OCC(=O)c2ccc(C)cc2)ccc1C	active: 3.98 µM
O=C(O)c1ccccc1SCC(=O)N1CCc2ccccc21	inconclusive [activator, partial curve]
O=C(Nc1ccc(Cl)cc1)Nc1ccccn1	active: 2.82 µM
Cc1nc(SCC(=O)Nc2nccs2)c(C#N)c(C)c1C	inconclusive [activator, partial curve, poor fit]
COc1ccccc1C1=NC(c2ccc(C)cc2)N=C1C (stereo not given)	inconclusive [activator, single point]
COc1cc(OC)cc(C(=O)NCC(=O)N2CCCCC2)c1	inactive
O=C(N/N=C1\CCCc2ccccc21)c1ccc([N+](=O)[O-])cc1	inconclusive [activator, partial curve]
N/C(=N\OC(=O)c1ccc2c(c1)OCO2)c1ccc(Br)cc1	inconclusive [activator, single point]
COc1ccc(Br)cc1/C=N/NC(=O)C[n+]1ccccc1	inactive
COc1ccc2[nH]c3c(N4CCc5ccccc5C4)ncnc3c2c1	inactive
O=C(CSc1cccc[n+]1[O-])Nc1cc2c(cc1Cl)C(=O)c1ccccc1C2=O	inconclusive [activator, single point]
COc1ccc2c(=O)c3ccccc3oc2c1	active: 3.55 µM
CC(C)Cc1nnc(NC(=O)c2ccc(N3CCCC3=O)cc2)s1	inactive
CC12CN3CC(=O)N4CC5(C)CN(CC(C)(C4)C5=O)C(=O)CN(C1)CC(C)(C3)C2=O	inactive
CC(=O)Nc1ccc(NC(=O)c2ccc(COc3ccc(C)cc3)o2)cc1	inconclusive [activator, full curve]
O=C(COc1ccc(Cl)cc1Cl)NC(=O)N1CCOCC1	inactive
COC(=O)c1c(NC(=O)c2cccs2)sc2c1CCCC2	inconclusive [activator, partial curve, poor fit]
O=C(Nc1ccc(C(F)(F)F)cc1)c1cccnc1N1CCOCC1	inactive
CSc1ccc(NC(=O)Nc2ccccc2C(N)=O)cc1	inconclusive [activator, partial curve]
CCc1ccc(NC(=O)c2ccccc2SC)cc1	inconclusive [activator, single point]
